Reference: the supplement of paper PMC7125110
± gives the standard error. Variants at the background level are over-represented here.

B1: glmS ribozyme (parent)
chain: AUAAAAGCGCCAGAACUACAGAAAUGUAGUUGACGAGGAGGAGGUUUAUCGAAUUUUCGGCGGAUGCCUCCAAA

Tests used:
Conditions in all cases: with glucosamine-6-phosphate
[1] = variants of: B1; test: self-cleavage kobs at 640 uM GlcN6P; higher = faster cleavage; RNA array
Summary of the method: (§1)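 Barcoded ribozyme variants, transcribed in situ by E. coli RNA polymerase on sequenced MiSeq chips, were followed via a hybridised Cy3 probe at 37 °C. Glucosamine-6-phosphate ranged from 40 μM to 10 mM in HEPES/KCl/Mg(OAc)2 buffer. kobs came from decay fits to per-tile medians, and kcat and KM from weighted Michaelis–Menten fits.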

[2] = variants of: B1; test: self-cleavage kobs at 2500 uM GlcN6P; higher = faster cleavage; RNA array
Summary of the method: as §1

[3] = variants of: B1; test: self-cleavage kobs at 160 uM GlcN6P; higher = faster cleavage; RNA array
Summary of the method: as §1

[4] = variants of: B1; test: self-cleavage kobs at 10000 uM GlcN6P; higher = faster cleavage; RNA array
Summary of the method: as §1

Row | Variant | self-cleavage kobs at 640 uM GlcN6P [1] | self-cleavage kobs at 2500 uM GlcN6P [2] | self-cleavage kobs at 160 uM GlcN6P [3] | self-cleavage kobs at 10000 uM GlcN6P [4]
1 | A12U G59C U69A | 0.00122 ± 0.00048 s⁻¹ |  |  | 
2 | C11A U46C | < 1e-05 s⁻¹ |  |  | 
3 | G13A A15G G35U | < 1e-05 s⁻¹ | < 1e-05 s⁻¹ |  | 
4 | A12U A52U G60A | < 1e-05 s⁻¹ |  |  | 
5 | C10G A15U U56A C70G | < 1e-05 s⁻¹ |  |  | 
6 | C10U A42C C67U | < 1e-05 s⁻¹ |  |  | 
7 | C10U A23C A48C A53C | < 1e-05 s⁻¹ |  | < 1e-05 s⁻¹ | 
8 | A12C U46A A52U C70G | < 1e-05 s⁻¹ |  |  | 
9 | C11A G13A G38U U46G U55C G62C A64C | < 1e-05 s⁻¹ |  |  | 
10 | C11G C16U G37A U55C | < 1e-05 s⁻¹ |  | < 1e-05 s⁻¹ | 
11 | A12G G13A G29A U56G G60U | < 1e-05 s⁻¹ | < 1e-05 s⁻¹ |  | 
12 | A12U A33U G43C G60C C61U G63U G66U C70U | < 1e-05 s⁻¹ | < 1e-05 s⁻¹ |  | 
13 | A12U U30A G38U | < 1e-05 s⁻¹ |  |  | 
14 | C11A A33U G66A | < 1e-05 s⁻¹ | < 1e-05 s⁻¹ | < 1e-05 s⁻¹ | 
15 | A12U G51U | < 1e-05 s⁻¹ | < 1e-05 s⁻¹ | < 1e-05 s⁻¹ | < 1e-05 s⁻¹
16 | C10U A36U G41A | < 1e-05 s⁻¹ | < 1e-05 s⁻¹ |  | 

Row | Variant | self-cleavage kobs at 640 uM GlcN6P [1] | self-cleavage kobs at 2500 uM GlcN6P [2] | self-cleavage kobs at 160 uM GlcN6P [3] | self-cleavage kobs at 10000 uM GlcN6P [4]
17 | C11A U31G C50A A53G | < 1e-05 s⁻¹ |  |  | < 1e-05 s⁻¹
18 | C10G A39U U45C | < 1e-05 s⁻¹ |  |  | 
19 | A12U A33C G37C U56A | < 1e-05 s⁻¹ |  |  | 
20 | A12U A15G G29U G40U U56C | < 1e-05 s⁻¹ |  |  | 
21 | C11A G13C C16G G40U | < 1e-05 s⁻¹ |  |  | 
22 | C11G G32A U65G | < 1e-05 s⁻¹ |  | < 1e-05 s⁻¹ | < 1e-05 s⁻¹
23 | C10U A48G G66A | < 1e-05 s⁻¹ |  |  | 
24 | A12G U47C | 0.000111 ± 1.5e-05 s⁻¹ | 0.000412 ± 8.3e-05 s⁻¹ | 3.52e-05 ± 1.3e-05 s⁻¹ | 0.000577 ± 6.1e-05 s⁻¹
25 | C10U G38C U54C U65C U69A | < 1e-05 s⁻¹ |  | < 1e-05 s⁻¹ | 
26 | A12G G40U A42C | < 1e-05 s⁻¹ |  | < 1e-05 s⁻¹ | 
27 | A12C G32C G59C | < 1e-05 s⁻¹ | < 1e-05 s⁻¹ |  | 
28 | A12G A33G | < 1e-05 s⁻¹ | < 1e-05 s⁻¹ | < 1e-05 s⁻¹ | < 1e-05 s⁻¹
29 | G13A G29U G38A A39C | < 1e-05 s⁻¹ |  |  | 
30 | C11U G29U | 7.49e-05 ± 1.3e-05 s⁻¹ | 0.000407 ± 6.3e-05 s⁻¹ | 5.37e-05 ± 1.3e-05 s⁻¹ | 0.000463 ± 6.1e-05 s⁻¹
31 | A12U A36U G37A U45A | < 1e-05 s⁻¹ | < 1e-05 s⁻¹ |  | 
